Test results published in PubChem BioAssay AID504333 (National Center for Advancing Translational Sciences (NCATS), 2011).
Among all 360,000 compounds or so, about 16,000 (4.4%) were called active. The inconclusive results got no clear call from the source; some entries with a clear call stand among them for comparison. The call rests on the fitted dose curve; in most records, active means well fitted inhibition curve with a large enough effect; inconclusive means small, poorly fitted or top-dose-only effect; inactive means no such curve, though single readings can be large or run the other way. Potencies of inconclusive entries are doubtful fits and often do not repeat.
Further: nearly all actives have a fitted effect of over 60% in size.
Potency means the concentration at half of the fitted maximal effect; tags describe the fitted curve by direction and shape.

Each compound was assayed against Bromodomain adjacent to zinc finger domain protein 2B (Homo sapiens) (UniProt Q9UIF8) (assay: qHTS Assay for Inhibitors of BAZ2B). Settings: AlphaScreen BAZ2B-H3K14Ac peptide displacement; series mostly up to 114 µM.
Chain of UniProt Q9UIF8 (Q9UIF8 whole entry, looked up, the tested form may be a part): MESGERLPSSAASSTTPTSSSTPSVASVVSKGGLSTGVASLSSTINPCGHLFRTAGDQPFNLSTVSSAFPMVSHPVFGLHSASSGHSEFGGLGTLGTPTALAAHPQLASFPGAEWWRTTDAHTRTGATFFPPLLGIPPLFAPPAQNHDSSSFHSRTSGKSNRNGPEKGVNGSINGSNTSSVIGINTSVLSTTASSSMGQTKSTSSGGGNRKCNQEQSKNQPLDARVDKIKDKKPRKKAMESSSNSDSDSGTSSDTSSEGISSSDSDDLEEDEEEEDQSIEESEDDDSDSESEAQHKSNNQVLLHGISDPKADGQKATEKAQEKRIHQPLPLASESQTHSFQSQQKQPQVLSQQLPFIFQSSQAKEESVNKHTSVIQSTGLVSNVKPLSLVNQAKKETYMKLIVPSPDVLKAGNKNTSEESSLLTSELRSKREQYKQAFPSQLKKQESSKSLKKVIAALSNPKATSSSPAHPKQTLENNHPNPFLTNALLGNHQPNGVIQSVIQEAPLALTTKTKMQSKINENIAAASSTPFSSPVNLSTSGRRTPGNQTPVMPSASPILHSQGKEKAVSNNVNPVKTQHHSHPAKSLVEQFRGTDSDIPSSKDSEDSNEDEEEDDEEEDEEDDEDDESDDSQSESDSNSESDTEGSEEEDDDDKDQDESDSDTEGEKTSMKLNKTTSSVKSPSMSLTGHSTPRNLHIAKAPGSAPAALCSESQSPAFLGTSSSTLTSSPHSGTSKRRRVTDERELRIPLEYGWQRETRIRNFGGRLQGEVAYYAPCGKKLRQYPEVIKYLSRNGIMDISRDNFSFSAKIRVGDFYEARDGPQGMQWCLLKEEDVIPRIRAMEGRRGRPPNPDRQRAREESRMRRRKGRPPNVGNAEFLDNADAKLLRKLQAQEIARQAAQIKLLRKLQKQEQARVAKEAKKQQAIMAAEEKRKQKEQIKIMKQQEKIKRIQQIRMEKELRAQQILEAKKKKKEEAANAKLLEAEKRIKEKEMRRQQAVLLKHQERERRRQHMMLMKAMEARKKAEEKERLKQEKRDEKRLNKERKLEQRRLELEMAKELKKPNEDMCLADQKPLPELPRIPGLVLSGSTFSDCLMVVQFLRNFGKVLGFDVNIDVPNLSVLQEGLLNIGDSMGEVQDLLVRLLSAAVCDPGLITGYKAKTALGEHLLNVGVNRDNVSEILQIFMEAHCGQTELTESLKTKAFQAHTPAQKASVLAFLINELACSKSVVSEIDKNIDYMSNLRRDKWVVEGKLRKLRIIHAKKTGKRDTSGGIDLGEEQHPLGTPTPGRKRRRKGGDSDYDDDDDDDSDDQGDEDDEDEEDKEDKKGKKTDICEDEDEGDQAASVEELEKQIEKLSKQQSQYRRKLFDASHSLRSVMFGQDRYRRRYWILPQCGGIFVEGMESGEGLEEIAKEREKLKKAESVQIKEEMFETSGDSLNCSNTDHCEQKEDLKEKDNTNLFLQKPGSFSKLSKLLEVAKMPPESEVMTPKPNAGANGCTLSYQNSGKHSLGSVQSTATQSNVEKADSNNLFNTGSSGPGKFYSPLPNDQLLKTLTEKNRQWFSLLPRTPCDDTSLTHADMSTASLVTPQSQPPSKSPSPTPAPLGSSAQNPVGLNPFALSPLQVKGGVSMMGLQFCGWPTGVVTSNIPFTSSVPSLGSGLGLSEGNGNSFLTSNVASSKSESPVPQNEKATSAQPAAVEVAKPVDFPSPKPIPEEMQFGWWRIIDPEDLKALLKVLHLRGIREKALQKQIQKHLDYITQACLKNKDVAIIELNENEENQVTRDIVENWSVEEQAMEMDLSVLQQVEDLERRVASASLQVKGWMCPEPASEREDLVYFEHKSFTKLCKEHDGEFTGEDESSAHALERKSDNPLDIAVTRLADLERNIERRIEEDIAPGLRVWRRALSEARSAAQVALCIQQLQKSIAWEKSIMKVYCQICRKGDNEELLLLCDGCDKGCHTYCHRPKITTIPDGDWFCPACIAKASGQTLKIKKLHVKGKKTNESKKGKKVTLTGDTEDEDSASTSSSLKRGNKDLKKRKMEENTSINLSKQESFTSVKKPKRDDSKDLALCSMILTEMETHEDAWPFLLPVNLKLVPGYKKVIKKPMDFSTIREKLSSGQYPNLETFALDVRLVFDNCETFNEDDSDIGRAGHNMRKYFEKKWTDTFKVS
Outline: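 Protein-peptide AlphaScreen: BAZ2B 50 nM, b-H3K14Ac 50 nM, 1x PBS pH 7.4 + 0.01% Tween-20. Preincubation 30 min RT; cpd 30 min RT (top 110 uM); beads 20 min RT, light-protected.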
For `CC1=C(C(=O)Nc2ccc(C)cc2C)C(c2cccs2)n2nc(SCc3cccc(C)c3)nc2N1` (configuration not stated), the Potency was inconclusive: 89.1 µM [inhibitor, single point].
`CCOc1ccc(/C=C(\C#N)C(=O)NCC2CCCO2)cc1OCC` (configuration not stated) was tested, and the Potency was “inactive”.
`Cc1cc(C(=O)COC(=O)c2ccc([N+](=O)[O-])o2)c(C)n1CC1CCCO1` (configuration not stated) was tested, and the Potency was inconclusive: 50.1 µM [inhibitor, partial curve].
For `COc1ccc(-n2cc(C(=O)NCCc3cc(OC)ccc3OC)c3ccccc3c2=O)cc1`, the Potency was inconclusive: 44.7 µM [inhibitor, partial curve].
`CCOC(=O)c1c(C)[nH]c(C)c1S(=O)(=O)N1CCCC(C(=O)NCc2ccc(N(C)C)cc2)C1` (configuration not stated) was tested, and the Potency was inconclusive: 79.4 µM [inhibitor, partial curve].
For `CCOc1ccc(C2C=C(c3ccccc3)Nc3ncnn32)cc1` (configuration not stated), the Potency was inconclusive: 89.1 µM [inhibitor, single point].
In the case of `COc1ccc(-n2c(=O)c3c(c4cc(OC)ccc4n3C)n(Cc3cccc(C)c3)c2=O)cc1`, the Potency is reported as “inactive”.
With `COc1cccc(-n2c(-c3ccc4[nH]c(C)c(C)c4c3)n[nH]c2=S)c1` the Potency was inconclusive: 70.8 µM [inhibitor, single point].
`Brc1ccc(-c2cnnc(N3CCCC3)n2)cc1` was tested, and the Potency was “inactive”.
With `Cc1cc(C)c(C(=O)N2CCCC(CNS(=O)(=O)c3cccs3)C2)o1` (configuration not stated) the Potency was “inactive”.
`Cc1cc(=O)[nH]c(Nc2cccc(F)c2)n1` was tested, and the Potency was “inactive”.
With `COC(=O)C(C)N1C(=O)S/C(=C\c2ccc(-c3ccc(C(=O)O)cc3C)o2)C1=O` (configuration not stated) the Potency was inconclusive: 100 µM [inhibitor, single point].
`CCOc1ccc(OCCC(=O)NNC(=O)c2nn(C)c(=O)c3ccccc23)cc1` was tested, and the Potency was active: 70.8 µM.
In the case of `C(=N\Nc1nc2ccccc2s1)/c1cccs1`, the Potency is reported as inconclusive: 50.1 µM [inhibitor, partial curve].
In the case of `CN1C2CCC1/C(=C\c1ccccc1)C(=O)/C2=C\c1ccccc1`, the Potency is reported as inconclusive: 39.8 µM [inhibitor, partial curve].
For `Cn1cnc([N+](=O)[O-])c1Nc1ccc(O)cc1`, the Potency was “inactive”.
`COc1ccc(NC2=CC(c3ccc(OC)cc3)N(c3ccc(OC)cc3)C2=O)cc1` (configuration not stated) was tested, and the Potency was inconclusive: 28.2 µM [inhibitor, full curve].
With `Cc1cc(=O)oc2cc(NC(=O)C3COc4ccccc4O3)ccc12` (configuration not stated) the Potency was inconclusive: 17.8 µM [inhibitor, full curve].
In the case of `CC(=O)c1ccc(N2CCN(c3ncnc4c3c(-c3ccccc3)cn4-c3ccc(Cl)cc3)CC2)cc1`, the Potency is reported as inconclusive: 12.6 µM [inhibitor, partial curve].
In the case of `O=C(CSc1ccccc1C(=O)O)NC1CCCCCCC1`, the Potency is reported as “inactive”.
In the case of `COc1cc(/C=N/NC(=O)C(Cc2c[nH]c3ccccc23)NC(=O)OCc2ccccc2)cc([N+](=O)[O-])c1O` (configuration not stated), the Potency is reported as active: 44.7 µM.
`COCCNC(=O)c1ccc(C(=O)NCCOC)s1` was tested, and the Potency was “inactive”.
For `Cc1ccc(OCCCC(=O)NCc2ccco2)c(C)c1`, the Potency was inconclusive: 50.1 µM [inhibitor, partial curve].
With `O=C(NCc1cccc(CNC(=O)C(=O)NCc2ccco2)c1)C(=O)NCc1ccco1` the Potency was inconclusive: 50.1 µM [inhibitor, partial curve].
`COc1cc(OC)cc(C(=O)NCC(=O)OCC(=O)c2cc(C)n(Cc3ccco3)c2C)c1` was tested, and the Potency was inconclusive: 44.7 µM [inhibitor, partial curve].
`Fc1ccccc1/C=N/N1CCN(Cc2ccccc2Cl)CC1` was tested, and the Potency was active: 50.1 µM.
For `CN(C)c1ccc(/C=C/C(=O)c2c(O)c3ccccc3oc2=O)cc1`, the Potency was inconclusive: 79.4 µM [inhibitor, single point].
For `CCOC(=O)c1cc(S(=O)(=O)Nc2cc(F)ccc2C)[nH]n1`, the Potency was inconclusive: 79.4 µM [inhibitor, single point].
For `CCOC(=O)N1CCc2c(sc3c2C(=O)NC(c2cc(OC)c(OC)c(OC)c2)N3)C1` (configuration not stated), the Potency was inconclusive: 89.1 µM [inhibitor, single point].
In the case of `COc1ccccc1NC(=O)c1c(NCc2ccc(C)o2)sc2c1CCCCC2`, the Potency is reported as inconclusive: 79.4 µM [inhibitor, single point].
`CCN(CC)c1ccc(C(=O)NC(=S)N2CCN(Cc3ccc4c(c3)OCO4)CC2)cc1` was tested, and the Potency was inconclusive: 20 µM [inhibitor, full curve].
With `Cc1ccc(-c2nnc(SCC(=O)Nc3ccccc3F)o2)cc1` the Potency was “inactive”.
With `COc1ccc(NS(=O)(=O)c2cn(C)c(=O)n(C)c2=O)c(OC)c1` the Potency was inconclusive: 89.1 µM [inhibitor, single point].
In the case of `COc1ccccc1NC(=O)c1oc2ccccc2c1NC(=O)COc1cccc(C)c1`, the Potency is reported as “inactive”.
In the case of `CCOC(=O)c1sc2ccccc2c1S(=O)(=O)Nc1ccc(C(C)=O)cc1`, the Potency is reported as inconclusive: 89.1 µM [inhibitor, single point].
In the case of `COc1ccccc1N1Cc2ccccc2C1`, the Potency is reported as active: 56.2 µM.
For `CCN(CC)CCn1c(NC(=O)c2ccccc2O)nc2ccccc21`, the Potency was inconclusive: 89.1 µM [inhibitor, single point].
For `Nc1ccc(-c2ncc(-c3ccccc3)o2)cc1`, the Potency was active: 28.2 µM.
`C=CCc1c(C)nc(-c2ccccc2)nc1Nc1ccc(O)cc1` was tested, and the Potency was inconclusive: 50.1 µM [inhibitor, partial curve].
For `CCc1ccc(N(CC)C(=O)Cn2nc(Cc3cccnc3)c3ccccc3c2=O)cc1`, the Potency was “inactive”.
`NNc1nc2c(F)cc(F)cc2s1` was tested, and the Potency was active: 50.1 µM.
`Cc1ccc(CSc2nnc(-c3cccnc3)n2N)cc1` was tested, and the Potency was “inactive”.
`Cn1c(=O)n(C)c2cc([N+](=O)[O-])c(N3CCN(C(=O)c4cccc(Cl)c4)CC3)cc21` was tested, and the Potency was active: 56.2 µM.
`CC1CCN(C(=O)CCN2C(=O)/C(=C/c3cccs3)SC2=S)CC1` was tested, and the Potency was inconclusive: 15.8 µM [inhibitor, full curve].
With `COc1cc(CN2CCN(S(=O)(=O)c3ccc(NC(C)=O)cc3)CC2)cc(OC)c1OC` the Potency was active: 50.1 µM.
In the case of `O=C1N(Cc2ccccc2Cl)c2ccccc2C1(O)c1c[nH]c2ccccc12` (configuration not stated), the Potency is reported as inconclusive: 50.1 µM [inhibitor, partial curve].
In the case of `CCn1c(-c2c(Cl)c(C)nn2C)n[nH]c1=S`, the Potency is reported as “inactive”.
In the case of `O=C(CCN1C(=O)/C(=C\c2ccccc2F)SC1=S)Nc1ccc(C(=O)O)c(O)c1`, the Potency is reported as inconclusive: 31.6 µM [inhibitor, partial curve].
In the case of `O=[N+]([O-])c1nn(-c2ccc3c(c2)OCCO3)n(O)c1=Nc1ccccc1`, the Potency is reported as active: 39.8 µM.
In the case of `Cc1[nH]c2ccccc2c1/C=N/Nc1ccc([N+](=O)[O-])cc1S(=O)(=O)Nc1ccc(Cl)cc1`, the Potency is reported as inconclusive: 89.1 µM [inhibitor, single point].
With `CC(C)(C)OC(=O)NCCC(=O)N/N=C/c1cccc2nccnc12` the Potency was inconclusive: 89.1 µM [inhibitor, single point].
For `Cc1nonc1OCCN1CCN(c2ccccc2[N+](=O)[O-])CC1`, the Potency was inconclusive: 79.4 µM [inhibitor, single point].
In the case of `CN(C)CCNc1nc2sc3c(c2c(=O)n1Cc1ccccc1)CCCCC3`, the Potency is reported as active: 35.5 µM.
`O=C(O)c1cc([N+](=O)[O-])c(N2CCCC2)c([N+](=O)[O-])c1` was tested, and the Potency was “inactive”.
For `CCN1CCN(c2ccc(S(=O)(=O)N3CCCCC3)cc2NC(=O)c2sccc2C)CC1`, the Potency was inconclusive: 89.1 µM [inhibitor, single point].
In the case of `Cc1cccc(NC2=C/C(=N/S(=O)(=O)c3cccs3)c3ccccc3C2=O)c1`, the Potency is reported as active: 2.51 µM.
`O=C(CN1C(=O)c2cccc3cccc1c23)Nc1ccc(S(=O)(=O)Nc2nccs2)cc1` was tested, and the Potency was inconclusive: 100 µM [inhibitor, single point].
In the case of `COc1cc(/C=N/Nc2cccc(C)c2)ccc1OC(=O)c1ccco1`, the Potency is reported as inconclusive: 79.4 µM [inhibitor, single point].
In the case of `O=C(CCc1nc2sc3c(c2c(=O)[nH]1)CCCC3)Nc1ccccc1Cl`, the Potency is reported as inconclusive: 89.1 µM [inhibitor, single point].
With `COc1ccc(CN2CCCN(S(=O)(=O)c3ccc(Br)cc3)CC2)cc1` the Potency was inconclusive: 70.8 µM [inhibitor, single point].
`Oc1ccccc1N=Cc1sc2ccccc2c1Cl` was tested, and the Potency was inconclusive: 44.7 µM [inhibitor, partial curve].
`CCC(CC)c1nnc(NC(=O)c2ccc3c(c2)OCO3)s1` was tested, and the Potency was “inactive”.
In the case of `Cc1ccc(CSCC(=O)N2CCN(c3ccccc3F)CC2)cc1`, the Potency is reported as “inactive”.
In the case of `COc1cccc(-c2nnc(SCN3C(=O)c4ccccc4C3=O)n2C)c1`, the Potency is reported as inconclusive: 89.1 µM [inhibitor, single point].
With `CC1CN(C(=O)CCS(=O)(=O)c2ccccc2)CC(C)O1` (configuration not stated) the Potency was “inactive”.
`CCn1cc(CCC(=O)NCc2ccccc2OC)c2ccccc21` was tested, and the Potency was inconclusive: 50.1 µM [inhibitor, partial curve].
In the case of `Cc1ccc(S(=O)(=O)CC(=O)Nc2sc3c(c2C#N)CCCC3)cc1`, the Potency is reported as “inactive”.
With `CC1=C(C(=O)Nc2ccccc2)C(c2cccnc2)n2nc(SCc3ccccc3Cl)nc2N1` (configuration not stated) the Potency was inconclusive: 89.1 µM [inhibitor, single point].
For `CN(C)CCNC(=O)COc1cccc(Cl)c1`, the Potency was inconclusive: 89.1 µM [inhibitor, single point].
In the case of `CCN1C(=O)/C(=C2\SC(N3CCCCC3)=NC2=O)c2ccccc21`, the Potency is reported as active: 39.8 µM.
In the case of `CCCCCCN1C(=O)C(O)=C(C(C)=O)C1c1ccccc1[N+](=O)[O-]` (configuration not stated), the Potency is reported as inconclusive: 56.2 µM [inhibitor, partial curve].
With `c1coc(CNc2nc(-c3ccncc3)cs2)c1` the Potency was “inactive”.
